“And” between values parts separate entries of the source, which are not always exact repeats. Identical values can stand only once. About 230 (0.21%) of roughly 110,000 compounds showed an effect of 50% or more. Some of the results follow.
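Also: 30 min substrate incubation versus DMSO and 10 µM JCP410 controls.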

Chain of DPAP1 (Q8IIJ9 whole entry, looked up): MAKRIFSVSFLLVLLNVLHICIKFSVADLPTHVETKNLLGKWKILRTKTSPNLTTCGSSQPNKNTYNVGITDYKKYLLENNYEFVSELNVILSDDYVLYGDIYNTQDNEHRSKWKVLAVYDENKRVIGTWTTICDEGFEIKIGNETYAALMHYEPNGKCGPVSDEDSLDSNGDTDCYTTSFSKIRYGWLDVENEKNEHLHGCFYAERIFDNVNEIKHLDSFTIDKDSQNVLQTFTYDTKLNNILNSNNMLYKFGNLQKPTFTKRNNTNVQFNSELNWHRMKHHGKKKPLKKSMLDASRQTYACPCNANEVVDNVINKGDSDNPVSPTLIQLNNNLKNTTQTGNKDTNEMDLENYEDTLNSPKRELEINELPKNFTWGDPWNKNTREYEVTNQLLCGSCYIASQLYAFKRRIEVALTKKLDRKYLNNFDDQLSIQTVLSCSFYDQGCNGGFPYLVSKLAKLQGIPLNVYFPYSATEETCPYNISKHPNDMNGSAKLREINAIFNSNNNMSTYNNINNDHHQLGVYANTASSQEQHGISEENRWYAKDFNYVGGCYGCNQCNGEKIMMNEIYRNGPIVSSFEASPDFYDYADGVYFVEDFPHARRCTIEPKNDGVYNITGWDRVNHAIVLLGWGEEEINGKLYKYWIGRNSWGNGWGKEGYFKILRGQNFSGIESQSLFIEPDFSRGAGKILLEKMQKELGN

The test has as its target DPAP1 (Plasmodium falciparum, UniProt Q8IIJ9). Briefly: primary screen, percent inhibition; read by cleavage of a fluorogenic dipeptide substrate; higher = more effect of the substance. Further details: species or system P. falciparum D10 trophozoite lysates; single well.
Regarding `COc1cc(C2=N/C(=C\c3coc4c(Cl)cc(Cl)cc4c3=O)C(=O)O2)cc(OC)c1OC`, the “% Inhibition @ 10 uM” value is reported as -1.15%.
With `COc1cc(OC)cc(C(=O)Nc2ccc(C(C)C)cc2)c1` the figure was -14.1%; with `O=C(NCc1ccc2c(c1)OCO2)C1CCN(S(=O)(=O)c2ccc3nc(O)ccc3c2)CC1`, -6.87%.
With `CCOc1ccc(C2(C)NC(=O)N(CCN(C)C)C2=O)cc1` (centres unmarked) the figure was -2.15% and -2.63%.
In the case of `CCOC(=O)CNC1CC(C)(C)NC(C)(C)C1` it was 2.22%; in that of `COc1ccc(C2C(C#N)=C(N)Oc3[nH]nc(C(C)C)c32)cc1OC` (centres unmarked), 3.65%; in that of `CC(C)(C)C(=O)N1CCC[C@H]1C(O)(c1ccccc1)c1ccccc1`, -5.13%.
Consider `CC(C)Cn1c(=O)c2ccccc2n2c(-c3cc(Cl)ccc3O)nnc12`, for which the “% Inhibition @ 10 uM” value is -0.206%.
Turning to `O=C(NCc1ccc(F)cc1)C1CCC(CNc2c(N3CCOCC3)c(=O)c2=O)CC1` (centres unmarked), the “% Inhibition @ 10 uM” value is -0.447%.
In the case of `O=C(/C=C/c1ccccc1)N1CCOCC1` it was -3.13%; in that of `CCN(CC)c1cc(Cl)c2nonc2c1[N+](=O)[O-]`, 5.66%; in that of `CN(C)c1ccc(/C=C2\C(=O)N(c3ccccc3F)N=C2c2ccccc2)cc1`, 3.98%.
As for `COc1ccccc1C(=O)N/C(=C\c1ccc2c(c1)OCO2)C(=O)N1CCCCC1`, the “% Inhibition @ 10 uM” value was found to be 3.95%.
In the case of `O=C(c1ccccc1)c1ccc(C(=O)N2CCN(c3ccccc3)CC2)cc1`, the “% Inhibition @ 10 uM” value amounted to 3.47%.
With `Cc1cc(-c2ccc(C)c(S(=O)(=O)Nc3cc(C)on3)c2)on1` the figure was 0.879%; with `O=C(O)/C=C/C(=O)NCCN1CCOCC1`, 1.42%; with `COc1cc(C(=O)Nc2ccc(S(=O)(=O)Nc3cc(C)on3)cc2)cc(OC)c1OC`, 0.408%.
With `Cc1cc(Br)ccc1C(=O)N[C@@H](CC(C)C)C(=O)NCC#N` the figure was -1.41%.
For `O=C(Nc1ccc2c(c1)OCO2)c1ccc(Cl)cc1Cl`, the “% Inhibition @ 10 uM” value is -5.32%.
In the case of `Cc1cccn2c(=O)c(/C=C(\C#N)C(=O)NC3CCCC3)c(Oc3ccc(Br)cc3)nc12`, the “% Inhibition @ 10 uM” value stood at 0.315%.
Take `COc1ccccc1/C=C(\C#N)C(N)=O`: the “% Inhibition @ 10 uM” value was -3.03%.
With `CCN1CCN(Cc2ccc(F)cc2F)CC1` the figure was 0.847%.
Consider `CC(C)CCNC(=O)c1cc(S(=O)(=O)N2CCOCC2)cn1C`, for which the “% Inhibition @ 10 uM” value is given as -5.01%.
With `Cc1ccc(-n2nc3c(c2NC(=O)CC(C)C)CS(=O)(=O)C3)c(C)c1`, the “% Inhibition @ 10 uM” value was 15.7%.
In the case of `CC1CCN(c2ccc3nnc(CCC(=O)N4CCOCC4)n3n2)CC1`, the “% Inhibition @ 10 uM” value is listed as -5.85%.
For `CCOc1ccc(C(=O)N2N=C(C)CC2(O)C(F)F)cc1` (centres unmarked), the “% Inhibition @ 10 uM” value is recorded as -3.45%.
In the case of `COc1ccccc1CCNCc1ccccc1OC` it was -2.89% and -3.37%.
As to `CS(=O)(=O)N(CC(=O)N1CCOCC1)c1ccc(C23C[C@H]4C[C@@H](C2)C[C@@H](C3)C4)cc1`, the “% Inhibition @ 10 uM” value is -0.872%.
In the case of `CC(C)(C)NS(=O)(=O)c1cc(Cl)ccc1OCC(=O)N1CCOCC1` it was 1.84%.
On to `CN1CCN(C(=O)c2ccccc2C(=O)O)CC1`, for which the “% Inhibition @ 10 uM” value stood at 0.583%.
In the case of `COc1ccc(OC)c(S(=O)(=O)CC(=O)c2cc3ccccc3oc2=O)c1` it was 9.23%.
In the case of `CC(=O)Nc1ccc(S(=O)(=O)NCc2ccccc2)cc1` it was 3.29%; in that of `O=S(=O)(NCC1CCCO1)c1ccc(-c2ccc(Cl)cc2)cc1` (centres unmarked), -3.04%; in that of `CC(O)C#CCN(Cc1ccccc1)C(C)C` (centres unmarked), 1.43%.
With `O=C1c2ccccc2C(=O)N1CCSC(=S)N1CCCCCC1`, the “% Inhibition @ 10 uM” value is -3.72%.
In the case of `CCc1cc2c(=O)n(CC(=O)NCc3ccccc3)cnc2s1` it was -0.478%; in that of `CCOC(=O)C1CCN(c2ccc(-c3ccccc3)nn2)CC1`, 3.76%; in that of `Clc1ccc(-c2csc3ncnc(NCc4ccco4)c23)cc1`, 0.408%.
For `C=CCn1c(SCc2ccc(Cl)cc2)nc(=O)c(CC)c1O`, the “% Inhibition @ 10 uM” value is -0.833%.
With `Cc1ccc(S(=O)(=O)NC(=O)NCCc2ccc(S(N)(=O)=O)cc2)cc1` the figure was -1.92%; with `O=C(c1ccccc1)c1ccc(N2C(=O)c3ccccc3C2=O)cc1`, -2.85%.
As for `COCCN1CC(C(=O)O)CC1=O` (centres unmarked), the “% Inhibition @ 10 uM” value is -0.186%.
With `CCOc1cc(-c2c(C#N)c(N)nc3c2CCCC3)ccc1O` the figure was -0.171%; with `FC(F)(F)c1ccccc1CN1CCN(Cc2ccc3c(c2)OCO3)CC1`, -3.72%.
For the molecule `COc1cccc(C(Nc2ccccn2)c2oc(CO)cc(=O)c2O)c1` (centres unmarked), the “% Inhibition @ 10 uM” value is on record as 0.0289%.
As to `N#CC1=C(N)Oc2[nH]nc(-c3ccccc3)c2C12C(=O)Nc1ccc(F)cc12` (centres unmarked), the “% Inhibition @ 10 uM” value was -2.68%.
Regarding `CC1CCN(S(=O)(=O)c2ccc3c(ccn3CCC(=O)N3CCCCC3)c2)CC1`, the “% Inhibition @ 10 uM” value came out at 1.24%.
`CN1C(=O)C(=Cc2ccc(SC3CCCCC3)o2)C(=O)N(C)C1=O`: the “% Inhibition @ 10 uM” value came out at 0.458%.
In the case of `Cc1cccc(C)c1N1C(=O)C2CC=CCC2C1=O` (centres unmarked), the “% Inhibition @ 10 uM” value is listed as -5.13%.
With `COc1ccc(C(O)C(C)NC(C)C(O)c2ccc(OC)cc2)cc1` (centres unmarked) the figure was 2.76%.
Turning to `CCn1c(CN2CCN(C(=O)c3ccco3)CC2)nc2c1c(=O)n(C)c(=O)n2C`, the “% Inhibition @ 10 uM” value was -0.499%.
Turning to `COc1ccc(Cl)cc1N(CC(=O)Nc1ccc2c(c1)OCO2)S(=O)(=O)c1ccccc1`, the “% Inhibition @ 10 uM” value is -2.44%.
With `Cc1cc(C)c(C)c(OCCCN2CCOCC2)c1` the figure was -5.84%; with `CN1CCN(CCCNC(=O)c2ccc(CS(=O)(=O)c3ccc(Br)cc3)o2)CC1`, 0.458%; with `COc1cc(C(=O)Nc2cccc(O)c2)cc(OC)c1OC`, -6.82%.
In the case of `Cc1noc(/C=C/c2cccs2)c1S(=O)(=O)N1CCC(C(=O)NC2CCCCC2)CC1` it was -3.09%.
In the case of `CC1=C(C(=O)Nc2ccccc2)C(c2ccc(C)o2)n2c(s/c(=C/c3ccco3)c2=O)=N1` (centres unmarked) it was 3.05%; in that of `CCC(C)NC(=O)c1ccccc1NC(=O)CN(c1cc(Cl)ccc1C)S(C)(=O)=O` (centres unmarked), -11.2%; in that of `CC(CNC(=O)C1CCN(c2nnc(N3CCCC3=O)s2)CC1)c1ccccc1` (centres unmarked), 0.623%.
Consider `Cn1c(Nc2cccc(Cl)c2)cc(=O)n(C)c1=O`, for which the “% Inhibition @ 10 uM” value was -6.83%.
In the case of `CC1CCCCN1C(=O)c1cccc2c1SCCC2=O` (centres unmarked), the “% Inhibition @ 10 uM” value is -7.32%.
With `CCn1c(C(=O)N2CCC(C(=O)NC(C)C34CC5CC(CC(C5)C3)C4)CC2)cc2sccc21` (centres unmarked) the figure was 0.137%.

Source of the values: paper PMC6919601, “Identification of Plasmodium dipeptidyl aminopeptidase allosteric inhibitors by high throughput screening” (PLoS ONE, 2019).
